In the supplement of paper PMC5919970:
Where a name gives a salt, the structure may show the parent alone. Over roughly 2,000 compounds, “fractional viability relative to vehicle” has its median near 0.92; the lowest 2% begin near 0.11. The list shows a part of the results.

Tested on: TYKNU
Test: fractional viability relative to vehicle; TYKNU is a high-grade serous ovarian cancer line; higher = less growth inhibition
Conditions: 72 h, genotype: OPA1 knockout (sgOPA1 #2)
Outline: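 TYKNU control cells or lentiCRISPRv2 knockout derivatives were plated at 500 cells per well in duplicate into drug-stamped 384-well plates holding a ~2100-compound library at 2 or 10 μM. Culture was in RPMI 1640 with 10% FBS at 37 °C in 5% CO2, with 72 h of drug treatment. Viability was measured by Cell Titer Glo luminescence, and the averaged duplicate treatment wells were normalised to duplicate control wells at the same plate position.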

O=C(O)C(Cc1ccccc1[N+](=O)[O-])=NNc1nc(-c2ccc(Cl)c(Cl)c2)cs1 (mixture of isomers)
fractional viability (2uM): 0.97
fractional viability (10uM): 0.774

Nc1ccc(O)c(C(=O)O)c1 [Mesalamine]
fractional viability (2uM): 1.18
fractional viability (10uM): 1

COC(=O)N1CCN(Cc2cccc(NC(=O)Nc3ccc(C)nc3)c2F)CC1
fractional viability (2uM): 1.01
fractional viability (10uM): 0.982

O=C(O)CSc1cc(NS(=O)(=O)c2ccc(Br)cc2)c2ccccc2c1O
fractional viability (2uM): 0.835
fractional viability (10uM): 0.365

CC(C)NC[C@H](O)COc1ccc(CCOCC2CC2)cc1 [Levobetaxolol HCl]
fractional viability (2uM): 1.04
fractional viability (10uM): 0.97

COC(=O)C1=C(C)NC(C)=C(C(=O)OC)C1c1ccccc1[N+](=O)[O-] [Nifedipine]
fractional viability (2uM): 0.946
fractional viability (10uM): 1.16

NC(=O)c1cccc2[nH]c(-c3ccc(C4CCCN4)cc3F)nc12 (configuration not stated)
fractional viability (2uM): 0.735
fractional viability (10uM): 0.788

COc1cc2c(cc1O)CC[C@@H]1[C@@H]2CC[C@]2(C)[C@@H](O)CC[C@@H]12 [2-Methoxyestradiol (2-MeOE2)]
fractional viability (2uM): 0.704
fractional viability (10uM): 0.592

C=CCc1cc(OC)c(O)c(C(=O)NCCO)c1 [Alibendol]
fractional viability (2uM): 1.18
fractional viability (10uM): 0.869

C#C[C@]1(O)CC[C@H]2[C@@H]3CCC4=CC(=O)CC[C@@H]4[C@H]3CC[C@@]21C [Norethindrone]
fractional viability (2uM): 0.976
fractional viability (10uM): 0.798

CCOc1cn(-c2ccc(F)cc2C)nc1C(=O)Nc1ccc(Oc2ccnc3cc(OC)c(OC)cc23)c(F)c1
fractional viability (2uM): 0.919
fractional viability (10uM): 0.773

C#C[C@]1(OC(C)=O)CC[C@H]2[C@@H]3CCC4=C[C@@H](OC(C)=O)CC[C@@H]4[C@H]3CC[C@@]21C [Ethynodiol diacetate]
fractional viability (2uM): 0.883
fractional viability (10uM): 0.807

CNC1CCC(N(Cc2cccc(-c3ccncc3)c2)C(=O)c2sc3ccccc3c2Cl)CC1 (configuration not stated) [Smoothened Agonist (SAG) HCl]
fractional viability (2uM): 0.918
fractional viability (10uM): 0.259

Nc1ccc(S(=O)(=O)Nc2ncccn2)cc1 [Sulfadiazine]
fractional viability (2uM): 1.09
fractional viability (10uM): 1.11

CCCC(C)NC(=O)c1ccc(Cl)c(Cl)c1 (configuration not stated)
fractional viability (2uM): 0.787
fractional viability (10uM): 0.91

CCn1c(=O)c(-c2ccc(-c3cncs3)cc2Cl)cc2cnc(Nc3ccc(N4CCN(C)CC4)cc3)nc21
fractional viability (2uM): 0.914
fractional viability (10uM): 0.64

Cc1cnc(Nc2ccc(N3CCN(C)CC3)cc2)nc1Nc1cccc(S(=O)(=O)NC(C)(C)C)c1
fractional viability (2uM): 0.575
fractional viability (10uM): 0.172

OC[C@@H](O)[C@@H](O)CO [Erythritol]
fractional viability (2uM): 0.986
fractional viability (10uM): 0.837

O=C1NC(=O)/C(=C/c2ccc(-c3ccc(F)cc3O)o2)S1
fractional viability (2uM): 0.814
fractional viability (10uM): 0.742

CC(C)CCN1c2nc(Nc3cc(F)c(O)c(F)c3)ncc2N(C)C(=O)C1C (configuration not stated)
fractional viability (2uM): 1.08
fractional viability (10uM): 0.734

NC1(c2ccc(-c3nc4ccn5c(=O)[nH]nc5c4cc3-c3ccccc3)cc2)CCC1
fractional viability (2uM): 1.22
fractional viability (10uM): 0.798

CN1CCN(CCCNc2ncc(Cl)c(-c3cc4c(C(=O)NC5CC5)cccc4s3)n2)CC1
fractional viability (2uM): 0.827
fractional viability (10uM): 0.764

NC(=O)c1noc([C@H](CCCC2CCCCC2)CC(=O)NO)n1
fractional viability (2uM): 1.1
fractional viability (10uM): 0.853

CC[C@@]1(O)C(=O)OCc2c1cc1n(c2=O)Cc2cc3cc(O)ccc3nc2-1 [(S)-10-Hydroxycamptothecin]
fractional viability (2uM): 0.179
fractional viability (10uM): 0.157

Nc1cccc(S(=O)(=O)N2CCCN(S(=O)(=O)c3ccc4c(c3)OCCO4)CC2)c1
fractional viability (2uM): 0.783
fractional viability (10uM): 0.849

CC[C@H](C)n1cc(C)c2c(C(=O)NCc3c(C)cc(C)[nH]c3=O)cc(-c3ccc(N4CCNCC4)nc3)cc21
fractional viability (2uM): 0.981
fractional viability (10uM): 0.712

Cc1cccc(-c2[nH]c(C(C)(C)C)nc2-c2ccc3nccnc3c2)n1
fractional viability (2uM): 1.28
fractional viability (10uM): 1.26

C[C@@H](c1ncncc1F)[C@](O)(Cn1cncn1)c1ccc(F)cc1F [Voriconazole]
fractional viability (2uM): 1.14
fractional viability (10uM): 1.05

Cc1c(NC(=O)c2ccc(C(C)(C)C)cc2)cccc1-c1cn(C)c(=O)c(Nc2ccc(C(=O)N3CCOCC3)cc2)n1
fractional viability (2uM): 0.849
fractional viability (10uM): 0.915

O=C(O)Cc1ccccc1Nc1c(Cl)cccc1Cl [Diclofenac Potassium]
fractional viability (2uM): 0.94
fractional viability (10uM): 0.957

O=C(O)Cc1ccccc1Nc1c(Cl)cccc1Cl [Diclofenac Sodium]
fractional viability (2uM): 1.06
fractional viability (10uM): 1.06

O=C(O)Cc1ccccc1Nc1c(Cl)cccc1Cl [Diclofenac Diethylamine]
fractional viability (2uM): 0.978
fractional viability (10uM): 0.939

CN(C)CCCNC(=O)c1ccc(-c2cc(O)c3ncccc3c2)cc1
fractional viability (2uM): 0.891
fractional viability (10uM): 0.677

C[C@@H]1CC(=O)NN=C1c1ccc(NN=C(C#N)C#N)cc1 [Levosimendan]
fractional viability (2uM): 1.34
fractional viability (10uM): 0.837

CC(=O)Oc1cc(C(F)(F)F)ccc1C(=O)O [Triflusal]
fractional viability (2uM): 0.978
fractional viability (10uM): 0.902

N=c1ccn2c(n1)O[C@H]1[C@H](O)[C@@H](CO)O[C@H]12 [Cyclocytidine HCl]
fractional viability (2uM): 0.827
fractional viability (10uM): 0.813

CNC(=O)c1ccc2cc([C@@]3(O)CCn4cncc43)ccc2c1 [TAK-700 (Orteronel)]
fractional viability (2uM): 1.18
fractional viability (10uM): 1.08

CNC(=O)c1ccccc1Oc1nc(Nc2cc(OC)c(OC)c(OC)c2)ncc1Br
fractional viability (2uM): 0.717
fractional viability (10uM): 0.828

C[C@]12C=CC(=O)C=C1CC[C@@H]1[C@@H]2[C@@H](O)C[C@@]2(C)[C@H]1CC[C@]2(O)C(=O)CO [Prednisolone]
fractional viability (2uM): 1.11
fractional viability (10uM): 1.07

O=c1ncn2nc(Sc3ccc(F)cc3F)ccc2c1-c1c(Cl)cccc1Cl
fractional viability (2uM): 1.36
fractional viability (10uM): 1.01

O=c1[nH]cc(F)c(=O)[nH]1 [Fluorouracil (5-Fluoracil, 5-FU)]
fractional viability (2uM): 1.58
fractional viability (10uM): 1.31

Cc1cncc(CN2CCC(=C3c4ccc(Cl)cc4CCc4cccnc43)CC2)c1 [Rupatadine Fumarate]
fractional viability (2uM): 1.06
fractional viability (10uM): 0.915

CS(=O)(=O)c1ccc([C@@H](O)[C@@H](CO)NC(=O)C(Cl)Cl)cc1 [Thiamphenicol]
fractional viability (2uM): 1.02
fractional viability (10uM): 1.07

COC(=O)[C@H]1[C@H]2C[C@@H]3c4[nH]c5cc(OC)ccc5c4CCN3C[C@H]2C[C@@H](OC(=O)c2cc(OC)c(OC)c(OC)c2)[C@@H]1OC [Reserpine]
fractional viability (2uM): 1.12
fractional viability (10uM): 0.244

COc1cc2c(cc1OC)-c1cc3ccc(OC)c(OC)c3c[n+]1CC2 [Palmatine chloride]
fractional viability (2uM): 0.909
fractional viability (10uM): 0.782

C=CCc1ccc(O)c(-c2ccc(O)c(CC=C)c2)c1 [Honokiol]
fractional viability (2uM): 0.957
fractional viability (10uM): 1.01

CNC(=C[N+](=O)[O-])NCCSCc1ccc(CN(C)C)o1 [Ranitidine]
fractional viability (2uM): 1.09
fractional viability (10uM): 1.09

OCc1ccc(-c2ccc(-c3ccc(CO)s3)o2)s1
fractional viability (2uM): 0.599
fractional viability (10uM): 0.407

O=c1c(-c2ccc(O)cc2)coc2cc(O)cc(O)c12 [Genistein]
fractional viability (2uM): 1.18
fractional viability (10uM): 0.955

Cc1cc(N2CCOCC2)ccc1Nc1nc(NC2CCCCC2)c2[nH]cnc2n1
fractional viability (2uM): 0.606
fractional viability (10uM): 0.744

C[C@H](NC(=O)Cc1cc(F)cc(F)c1)C(=O)N[C@@H]1C(=O)N(C)c2ccccc2-c2ccccc21
fractional viability (2uM): 0.997
fractional viability (10uM): 1.02

O=C(O)c1ccc(Nc2ncc3c(n2)-c2ccc(Cl)cc2C(c2c(F)cccc2F)=NC3)cc1
fractional viability (2uM): 0.977
fractional viability (10uM): 0.718

CSc1cccc(Nc2ncc3cc(-c4c(Cl)cccc4Cl)c(=O)n(C)c3n2)c1
fractional viability (2uM): 0.687
fractional viability (10uM): 0.466

CCOc1ccn(-c2ccc(F)cc2)c(=O)c1C(=O)Nc1ccc(Oc2ccnc(N)c2Cl)c(F)c1
fractional viability (2uM): 1.03
fractional viability (10uM): 1.08

Cc1nc(Nc2n[nH]c3c2CN(C(=O)N[C@H](CN(C)C)c2ccccc2)C3(C)C)c2sccc2n1
fractional viability (2uM): 0.376
fractional viability (10uM): 0.237

N[C@@H]1CN(c2c(F)cc3c(=O)c(C(=O)O)cn([C@@H]4C[C@@H]4F)c3c2Cl)CC12CC2 [Sitafloxacin Hydrate]
fractional viability (2uM): 1.13
fractional viability (10uM): 1.37

CNC[C@H](O)c1cccc(O)c1 [Phenylephrine HCl]
fractional viability (2uM): 0.871
fractional viability (10uM): 0.749

O=C(O[C@@H]1Cc2c(O)cc(O)cc2O[C@@H]1c1cc(O)c(O)c(O)c1)c1cc(O)c(O)c(O)c1 [(-)-Epigallocatechin Gallate]
fractional viability (2uM): 0.981
fractional viability (10uM): 0.645

CC(C)C[C@H](NC(=O)CNC(=O)c1cc(Cl)ccc1Cl)B(O)O
fractional viability (2uM): 0.525
fractional viability (10uM): 0.254

COC(=O)c1ccc2c(c1)NC(=O)/C2=C(\Nc1ccc(N(C)C(=O)CN2CCN(C)CC2)cc1)c1ccccc1 [Nintedanib (BIBF 1120)]
fractional viability (2uM): 1.32
fractional viability (10uM): 0.372

N#C[C@@H]1CCCN1C(=O)CNC12CC3CC(CC(O)(C3)C1)C2 [Vildagliptin (LAF-237)]
fractional viability (2uM): 1.2
fractional viability (10uM): 0.969

CCN(CC)CCN(Cc1ccc(-c2ccc(C(F)(F)F)cc2)cc1)C(=O)Cn1c(SCc2ccc(F)cc2)nc(=O)c2c1CCC2
fractional viability (2uM): 0.76
fractional viability (10uM): 0.0367

COc1cc2ncnc(Nc3ccc(Cl)cc3F)c2cc1OC
fractional viability (2uM): 1.25
fractional viability (10uM): 1.64

Oc1ccc(Nc2nc(-c3ccc(Cl)cc3)cs2)cc1
fractional viability (2uM): 0.838
fractional viability (10uM): 0.833

N#Cc1ccc2[nH]c(O)c(-c3ccc(CN4CCOCC4)cn3)c2c1
fractional viability (2uM): 1.07
fractional viability (10uM): 0.707

CO[C@H]1C[C@@H]2CC[C@@H](C)[C@@](O)(O2)C(=O)C(=O)N2CCCC[C@H]2C(=O)O[C@H]([C@H](C)C[C@@H]2CC[C@@H](O)[C@H](OC)C2)CC(=O)[C@H](C)/C=C(\C)[C@@H](O)[C@@H](OC)C(=O)[C@H](C)C[C@H](C)/C=C/C=C/C=C/1C [Rapamycin (Sirolimus)]
fractional viability (2uM): 0.942
fractional viability (10uM): 0.868

N[C@@H]1CCCN(c2c(/C=C3\SC(=O)NC3=O)cccc2-c2ccccc2)C1
fractional viability (2uM): 1.06
fractional viability (10uM): 0.941

CN(C)C(=O)c1ccc(S(=O)(=O)c2ccc(NC(=O)[C@@](C)(O)C(F)(F)F)c(Cl)c2)cc1
fractional viability (2uM): 0.83
fractional viability (10uM): 0.753

C#C[C@]1(O)CC[C@H]2[C@@H]3CCc4cc(OC)ccc4[C@H]3CC[C@@]21C [Mestranol]
fractional viability (2uM): 1.11
fractional viability (10uM): 0.958

CC(C)NCC(O)c1ccc(NS(C)(=O)=O)cc1 (configuration not stated) [Sotalol]
fractional viability (2uM): 0.988
fractional viability (10uM): 0.845

CNc1ncc2cc(-c3cc(NC(=O)NCCC(C)(C)C)c(F)cc3C)c(C)nc2n1
fractional viability (2uM): 0.828
fractional viability (10uM): 0.775
